Laboratory results taken from the supplement of paper PMC10338343.
± gives the standard deviation. This is a selection; strong and weak results do not stand in their true shares.

The sequences below were run on MIWI (PIWIL1) piRISC loaded with piRNA #1 (30 nt) (assay: pre-steady-state target cleavage rate (min^-1); MIWI and MILI are mouse PIWI proteins and EfPiwi is from a freshwater sponge; tags in brackets are library labels; higher = faster piRNA-guided slicing of the target). Conditions: guide: piRNA #1 5'p-UGAGGUAGUAGGUUGUAUAGUAUCCAGAGG; auxiliary factor: 500 nM mouse GTSF1.
Method in brief: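 A transcribed, DNA-blocked target RNA library […] was incubated at 33 °C for 0–8 or 0–960 min with 1 nM active affinity-purified piRISC carrying one synthetic guide, in HEPES–potassium acetate buffer with or without 500 nM GTSF1 partner protein. Uncleaved targets were then sequenced and normalised to depth and to weakly complementary targets. Data from three trials were pooled, with k3 capped at 0.0001 min^-1, and a burst-and-steady-state fit yielded the pre-steady-state cleavage rate.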
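Further: 1 nM active piRISC with 0.1 nM target library at 33 °C single turnover.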

Sequence	pre-steady-state target cleavage rate
GGAGACCUUACUAUACAACCUACAACCUGA	0.304 ± 0.049
GCUCUGCAUACUAUACAACCUUCUACCUCA	0.65 ± 0.031
CCUCUGGAUACAAUACAACCUACUACCACA	1.9 ± 0.13
GGAGACCAUACUAUAGAACCUAGUACCUCA	0.00382 ± 0.0021
GGAGACCUAACUAUACAACCUACUACCUCA [g2:g21:cont:t1A]	1.19 ± 0.14
GGACUGGAUACUUUACAACCUUCUACCUCA	0.531 ± 0.037
GGAGAGGAUACUAUACAACCUUCAACCUCA	0.24 ± 0.025
GGAGACCUAACUGUACAACCUACUACCUCA	0.327 ± 0.046
GGAGACGAAACUAUAGAACCUACUACCUCA	0.962 ± 0.05
GGAGACGAUACUUAACAACCUACUACCUCA	0.793 ± 0.068
GGAGACCUUUACUAUACAACCUACUACCUCA	1.85 ± 0.17
CCUCUGGAUACUAUACAACCUACUACUCUCA	2.32 ± 0.16
GCUCUCGAUACUAUACAACCUACUAGCUCA	0.779 ± 0.056
GGAGUGGAUUGUAUACAACCUACUACCUCA	0.997 ± 0.069
CCUCUGGUUACUAUACUACCUACUACCUCA	1.58 ± 0.097
CCACUGGAUACUAUACAACCUACUACCUCA	1.8 ± 0.11
GGUCUGGAUACUGAUACAACCUACUACCUCA	1.67 ± 0.11
GGAGACGAUUCUAUACAACCAACUACCUCA	0.126 ± 0.014
CCUCUGGAUACUAUACAACCGUACUACCUCA	0.00658 ± 0.004
GGAGACGAUACUAUACAUCCUUCUACCUCA	0.242 ± 0.022
GGAGACGAUACUAUACAACCUUCUACGUCA	0.417 ± 0.07
GGAGAGGAUACUAUACAACCUACUGACCUCA	0.576 ± 0.034
GCUCUGGAAUACUAUACAACCUACUACCUCA	1.92 ± 0.1
GGAGAGGAUACUAUACAACCAUACUACCUCA	0.00328 ± 0.0031
